Data: PubChem BioAssay AID504332 (National Center for Advancing Translational Sciences (NCATS), 2011)
The whole screen tested about 350,000 compounds, of which about 31,000 (8.9%) were called active. This list was built around the results that the source calls inconclusive (neither active nor inactive); the mix of calls is not that of the screen. The call rests on the fitted dose curve; in most records, active means well fitted inhibition curve with a large enough effect; inconclusive means small, poorly fitted or top-dose-only effect; inactive means no such curve, though single readings can be large or run the other way. Potencies of inconclusive entries are doubtful fits and often do not repeat.

Biological target: Histone-lysine N-methyltransferase EHMT2 (Homo sapiens) (UniProt Q96KQ7)
Sequence of UniProt Q96KQ7 (Q96KQ7 whole entry, looked up): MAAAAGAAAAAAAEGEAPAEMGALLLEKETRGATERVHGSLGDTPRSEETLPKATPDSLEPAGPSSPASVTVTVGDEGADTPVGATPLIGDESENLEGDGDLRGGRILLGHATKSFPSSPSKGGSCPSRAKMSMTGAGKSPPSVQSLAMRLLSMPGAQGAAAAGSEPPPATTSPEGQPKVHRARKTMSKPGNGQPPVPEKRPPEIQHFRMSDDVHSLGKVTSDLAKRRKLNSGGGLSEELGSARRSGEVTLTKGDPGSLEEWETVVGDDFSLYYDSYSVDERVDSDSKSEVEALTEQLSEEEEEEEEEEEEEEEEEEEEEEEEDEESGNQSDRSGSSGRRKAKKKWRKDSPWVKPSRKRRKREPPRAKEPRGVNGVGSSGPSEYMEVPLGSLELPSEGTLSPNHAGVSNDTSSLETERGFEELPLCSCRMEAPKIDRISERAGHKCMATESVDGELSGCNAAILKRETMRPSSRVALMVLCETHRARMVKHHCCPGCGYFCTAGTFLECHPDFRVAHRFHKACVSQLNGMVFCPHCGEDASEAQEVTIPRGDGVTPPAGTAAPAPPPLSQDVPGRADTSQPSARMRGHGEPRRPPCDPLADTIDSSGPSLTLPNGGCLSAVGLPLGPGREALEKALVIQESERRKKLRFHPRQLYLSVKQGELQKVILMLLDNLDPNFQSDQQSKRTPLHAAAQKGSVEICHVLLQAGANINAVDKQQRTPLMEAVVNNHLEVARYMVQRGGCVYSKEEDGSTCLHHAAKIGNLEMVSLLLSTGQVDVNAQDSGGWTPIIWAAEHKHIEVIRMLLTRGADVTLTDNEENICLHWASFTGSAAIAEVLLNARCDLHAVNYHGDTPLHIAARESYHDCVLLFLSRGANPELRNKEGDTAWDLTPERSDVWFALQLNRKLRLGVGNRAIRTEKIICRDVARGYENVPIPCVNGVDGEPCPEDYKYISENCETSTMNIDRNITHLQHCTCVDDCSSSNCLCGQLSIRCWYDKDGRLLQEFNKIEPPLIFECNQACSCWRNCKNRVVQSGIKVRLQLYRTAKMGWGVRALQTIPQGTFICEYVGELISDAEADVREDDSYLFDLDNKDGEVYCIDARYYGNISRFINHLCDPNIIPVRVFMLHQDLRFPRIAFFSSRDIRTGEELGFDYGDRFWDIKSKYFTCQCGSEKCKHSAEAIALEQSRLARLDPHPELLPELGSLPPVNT
Assay: qHTS Assay for Inhibitors of Histone Lysine Methyltransferase G9a; further: nearly all actives have a fitted effect of over 75% in size
Conditions: G9a H3K9 monomethylation, AlphaScreen, 2 h; activity, negative = inhibition: at 59 µM (top of the series) unless noted
Procedure, shortened: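 Chemiluminescent proximity detection of H3K9 monomethylation, read after 10 min bead incubation in the dark. Reaction: 20 nM G9a, 500 nM biotin-H3K9 peptide, 20 uM SAM cofactor, 2 h, room temperature, following 15 min enzyme-compound preincubation.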
On the % scale 0 is the no-effect control and ±100 the full control effect; potency means the concentration at half of the fitted maximal effect; tags describe the fitted curve by direction and shape.

SMILES | Potency | activity, negative = inhibition
COc1cc(NC(=S)N2CCCCC2C)c(OC)cc1Cl (stereo not drawn) | inconclusive: 50.1 µM [inhibitor, partial curve, poor fit] | –
COc1ccc(C2C=C(C34CC5CC(CC(C5)C3)C4)NC(=S)N2)cc1 (stereo not drawn) | inconclusive: 31.6 µM [inhibitor, single point] | –
CN(C)CCC(=O)c1ccc2c(c1)OCO2 | active: 1.78 µM | –
CC1Cc2ccccc2N1Cc1cc(=O)n2ccsc2n1 (stereo not drawn) | inconclusive: 39.8 µM [inhibitor, single point] | –
CCNC(=O)CN1c2cccc3cccc(c23)S1(=O)=O | – | inconclusive: -60.1% [inhibitor]
Cc1ccc(C)c(Cn2c(=O)n(Cc3ccc4c(c3)OCO4)c(=O)c3oc4ccccc4c32)c1 | – | inactive: -1.85%
CCN1CCN(c2c(Cl)cccc2NC(=O)c2ccc3c(c2)OCCO3)CC1 | inconclusive: 39.8 µM [inhibitor, partial curve, poor fit] | –
COC(=O)c1ccc(NC(=O)CC2C(=O)N(c3ccc(F)cc3)C(=O)N2Cc2ccc(OC)cc2)cc1 (stereo not drawn) | – | inactive: 2.39%
CCN(C(=O)COC(=O)c1ccc2ccccc2c1)c1c(N)n(Cc2ccccc2)c(=O)[nH]c1=O | – | inactive: 21.8% [at 12.7 µM]
C(=N\Nc1nc2ccccc2[nH]1)/c1cccc2nccnc12 | – | inactive: -4.89% [at 102 µM]
CCOC(=O)N1CCN(C(=O)CSc2nnc(-c3cc(OC)ccc3OC)o2)CC1 | inconclusive: 39.8 µM [inhibitor, single point] | –
Cc1cc(/C([O-])=C(/C(=S)Nc2ccccc2)[n+]2ccccc2)c(C)n1-c1ccccc1 | active: 50.1 µM | –
N#CC1=C(N)Oc2nc(-c3ccccc3)[nH]c2C1c1cccnc1 (stereo not drawn) | inconclusive: 89.1 µM [inhibitor, partial curve, poor fit] | –
CC(=O)Nc1ccc(S(=O)(=O)N2CCC(N3CCCCCC3)CC2)cc1 | active: 39.8 µM | –
O/N=C\c1cccn1-c1ccc(Br)cc1 | inconclusive: 50.1 µM [inhibitor, partial curve, poor fit] | –
OCCN1CCN(C(=S)c2ccc(Cl)cc2)CC1 | inconclusive: 3.55 µM [inhibitor, partial curve, poor fit] | –
CCn1c(=O)c(CCC(=O)N2CCN(c3ccccn3)CC2)c(C)c2c(C)nn(-c3ccccc3)c21 | – | inactive: -20.4% [at 102 µM]
CCOc1ccc(NC(=O)CN(C)C(=O)c2c(-c3c(F)cccc3Cl)noc2C)cc1OCC | inconclusive: 79.4 µM [inhibitor, single point] | –
CC(C(=O)Nc1ccc(C(=O)O)cc1)N1C(=O)c2ccccc2C1=O (stereo not drawn) | – | inactive: 22.3% [at 2.33 µM]
COc1cccc(C=NCCNC(=O)c2nonc2N)c1O | – | inconclusive: -62.4% [inhibitor] [at 12.7 µM]
COCCn1cc(C(=O)N2CCCC(C)C2)c2c3ccccc3n(C)c2c1=O (stereo not drawn) | inconclusive: 89.1 µM [inhibitor, single point] | –
Cc1ccc(OCC(=O)Nc2cc(NC(=O)COc3ccc(C)cc3)cc(C(=O)O)c2)cc1 | inconclusive: 100 µM [inhibitor, single point] | –

SMILES | Potency | activity, negative = inhibition
COc1ccc(NC(=O)CSc2nc3ccncc3[nH]2)c(OC)c1 | inactive | –
O=C(NP(=O)(N1CCCC1)N1CCCC1)C1=C(N2CCOCC2)/C(=C/c2cccc([N+](=O)[O-])c2)CC1 | active: 44.7 µM | –
COc1ccc(NC(=S)NC2CCCCC2)cn1 | – | inactive: 5.5% [at 102 µM]
COc1cc(NC(=O)c2cccs2)c(OC)cc1NC(=O)CCC(=O)Nc1ccc2ncccc2c1 | inconclusive: 89.1 µM [inhibitor, single point] | –
CCC(c1nnc(SCC(=O)NNC(=O)c2ccccc2)n1Cc1ccccc1)N(C)C (stereo not drawn) | inconclusive: 56.2 µM [inhibitor, partial curve, poor fit] | –
Cc1nonc1C1CCCN1Cc1cn[nH]c1-c1ccc(-c2ccccc2)cc1 (stereo not drawn) | inconclusive: 15.8 µM [inhibitor, partial curve] | –
CC(C)(C)n1nnnc1CN1CCN2CCCC2C1 (stereo not drawn) | inconclusive: 28.2 µM [inhibitor, single point] | –
O=C(C1CCCN(S(=O)(=O)c2ccc(Br)s2)C1)N1CCN(c2ccc(F)cc2)CC1 (stereo not drawn) | inconclusive: 5.01 µM [inhibitor, partial curve, poor fit] | –
O=C(Nc1cccnc1)c1ccc(NS(=O)(=O)c2cccc([N+](=O)[O-])c2)cc1 | inconclusive: 79.4 µM [inhibitor, single point] | –
CCOc1ccccc1C1CC(c2ccc(F)cc2)Nc2nc(N)nn21 (stereo not drawn) | inconclusive: 39.8 µM [inhibitor, single point] | –
CCOc1ccc(CCNC(=O)CN2C(=O)COc3ccc(S(=O)(=O)N4CCOCC4)cc32)cc1 | – | inactive: 39.5% [at 102 µM]
CC(C)C[C@H](N)c1cn([C@@H](CCCCN)C(=O)N2CCNCC2)nn1 | – | inactive: 5.01% [at 12.7 µM]
CN(CC(=O)Nc1ccccc1Cl)C(=O)COC(=O)CSc1ccc(F)cc1 | – | inactive: -17.8% [at 2.33 µM]
O=C(CN1CCN(S(=O)(=O)c2ccccc2)CC1)NCc1ccccc1 | inconclusive: 50.1 µM [inhibitor, partial curve] | –
CCOc1ccc(Cc2nnc(SCC(=O)c3ccc(OC)cc3)o2)cc1 | inconclusive: 89.1 µM [inhibitor, single point] | –
CCn1ccnc1C(O)c1cccc(OC)c1OC (stereo not drawn) | inconclusive: 39.8 µM [inhibitor, single point] | –
O=C(CSc1nnc(-c2cccs2)n1-c1ccccc1)c1ccc2c(c1)OCCO2 | active: 39.8 µM | –
COc1ccc(C(=O)C2CCCN(Cc3nc4ccccc4nc3C)C2)cc1OC (stereo not drawn) | inconclusive: 50.1 µM [inhibitor, partial curve] | –
Cc1cccc(C)c1-n1c(SCC(=O)Nc2ccc(C(=O)O)cc2)nnc1-c1cccc(S(=O)(=O)N(C)C)c1 | – | inactive: -38.1% [at 102 µM]
Cc1ccc2c(=O)cc(C(=O)Nc3sc4c(c3C(N)=O)CCCC4)oc2c1 | – | inactive: -21.8%
Cn1c(N)c(C(=O)CSc2nn(-c3ccc(F)cc3)c(=S)s2)c(=O)n(C)c1=O | inconclusive: 6.31 µM [inhibitor, single point] | –
